# Some of the results follow.
# Target: T1, OsWOX13 (Oryza sativa, UniProt Q5QMM3 1-267)
# T1 sequence: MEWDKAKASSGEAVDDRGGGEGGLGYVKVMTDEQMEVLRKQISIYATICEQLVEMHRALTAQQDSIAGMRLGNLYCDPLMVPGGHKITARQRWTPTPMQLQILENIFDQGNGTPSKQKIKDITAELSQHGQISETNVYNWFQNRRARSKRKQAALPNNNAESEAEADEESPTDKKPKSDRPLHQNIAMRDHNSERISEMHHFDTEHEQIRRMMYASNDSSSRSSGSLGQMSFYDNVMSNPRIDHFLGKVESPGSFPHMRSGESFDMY
# Assay: protein-binding microarray (RPBM); PBS, 2% BSA, 51.3 ng/ul salmon testes DNA, 50 uM zinc acetate, 200 nM TF, 25 C, 1 h; high values mean tight binding
# Conditions: protein: recombinant; tags: N-terminal polyhistidine and DsRed monomer fusion (pET32a); label: CyDye5-dUTP incorporated in the synthesized complementary strand; 3' TTTTT single-stranded linker to array surface; dsDNA, one strand shown
# Method in brief: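 Transcription factors were made in E. coli BL21-CodonPlus as N-terminal fusions to a polyhistidine tag and DsRed, then purified on Ni–NTA. After primer extension with Cy5-dUTP and blocking with 2% BSA, a custom Agilent array was exposed for 1 h at 25 °C to 200 nM protein in PBS, 2% BSA, salmon testes DNA and 50 µM zinc acetate. Washed arrays were scanned on an Axon 4000B, and the binding signal is per-feature fluorescence intensity in arbitrary units.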
row,Sequence,binding signal
1,ATTATACTGATGGACTATGATATATTACCTTGAGATGAGGCGGAGTCACCTAGTGCAG,9420 fluorescence intensity (a.u.)
2,CTCAAGCCATCACAACTTAATTAAGCAGCAGCATTAGCAGCGGAGTCACCTAGTGCAG,5540 fluorescence intensity (a.u.)
3,TTAGTAAAACAATTAAATAGATATATATCTTTGACAACTTCGGAGTCACCTAGTGCAG,3710 fluorescence intensity (a.u.)
4,GGCTTATAATTTGTTATTATAGCTGCTCTCAGGGGACAGTCGGAGTCACCTAGTGCAG,12900 fluorescence intensity (a.u.)
5,ATTTCTAGAAATTGATAGTTAAAGATAGAAATGTTTTACTCGGAGTCACCTAGTGCAG,5490 fluorescence intensity (a.u.)
6,CATATTGACATGCACATTTGCTTCACGGTCAAGACTTGAGCGGAGTCACCTAGTGCAG,9690 fluorescence intensity (a.u.)
7,AATACTAAATAGTTGAATTGATAAATATGTACAGTTATTGCGGAGTCACCTAGTGCAG,4330 fluorescence intensity (a.u.)
8,TTAAATTATATTAAACGGCATATTTCATGAGAAAATTTATCGGAGTCACCTAGTGCAG,7900 fluorescence intensity (a.u.)
9,TGGTGTGATTATGGTGAATAAGAGCAACGACCGGCTTCGGCGGAGTCACCTAGTGCAG,12800 fluorescence intensity (a.u.)
10,AAAATAAATAAAATCATTTCCTTGCTAAAATTGAAAGCAACGGAGTCACCTAGTGCAG,4560 fluorescence intensity (a.u.)
11,AGAAATTGTGTGATTTATTGTAGTGTGTAGAAATTTATAGCGGAGTCACCTAGTGCAG,11700 fluorescence intensity (a.u.)
12,TTAATCGCCAAATTATCCTAATCAATCCAAGGGAGAGAGTCGGAGTCACCTAGTGCAG,12000 fluorescence intensity (a.u.)
13,TGTGTGATTGCTGTTCTTCTCTCTCGCGTCCACGTTCGCGCGGAGTCACCTAGTGCAG,29800 fluorescence intensity (a.u.)
14,AAATCAGAAATCAATTAATACGCCAAGGGGAAGATCATGCCGGAGTCACCTAGTGCAG,6910 fluorescence intensity (a.u.)
15,TTTCAATCCAACGGTGATGAGCGCGACCGCTCAATTTGCACGGAGTCACCTAGTGCAG,7210 fluorescence intensity (a.u.)
16,CAGTTCATTTCTGAAATTGATTTTAACTTTTAAGAAAGGTCGGAGTCACCTAGTGCAG,8880 fluorescence intensity (a.u.)
17,ATTCCTAATGTTTGACTGACAGGTGGGGTCTGGTGAATTCCGGAGTCACCTAGTGCAG,9010 fluorescence intensity (a.u.)
18,TCAAATAAATTGATGGTAAACTCAGGGATATATAAAGAATCGGAGTCACCTAGTGCAG,24300 fluorescence intensity (a.u.)
19,AATAAATCAATTATTAACCTTATATATCCATAAGGGTATTCGGAGTCACCTAGTGCAG,24300 fluorescence intensity (a.u.)
20,GTTGTATGATTGACACTAGATCGAGAAAAGGTGCGACAAACGGAGTCACCTAGTGCAG,23500 fluorescence intensity (a.u.)
21,CTAATTAAGAAATTGCAATCACTGTCTGTATGTAACATCACGGAGTCACCTAGTGCAG,31000 fluorescence intensity (a.u.)
22,CATAAAAGTAGATTTGACGTAACTACATATGCAGTTGAGCCGGAGTCACCTAGTGCAG,4250 fluorescence intensity (a.u.)
23,CTACACGATTGATACCTACAGCCACGCCGTCGAATCCGTTCGGAGTCACCTAGTGCAG,12600 fluorescence intensity (a.u.)
24,TTAGATTTGTAGCTATCGGATTGTCTTGAGATTTGAGTATCGGAGTCACCTAGTGCAG,6330 fluorescence intensity (a.u.)
25,TTGATTTACAAGTTAGAAACCAACTCCTGTTGATAACTATCGGAGTCACCTAGTGCAG,15200 fluorescence intensity (a.u.)
26,AGTAATTACAAATCTACCCTATAATTCACCAACCCACTCTCGGAGTCACCTAGTGCAG,20800 fluorescence intensity (a.u.)
27,AACAATGCGTGCGATGCTTGATTGATGCGTGGGACGACATCGGAGTCACCTAGTGCAG,9450 fluorescence intensity (a.u.)

row,Sequence,binding signal
1,TCTAAATGTAATTATATTTTACTTTCACAAAACTCTAAAACGGAGTCACCTAGTGCAG,4980 fluorescence intensity (a.u.)
2,AGCAAAATTCTCTCAATATGTGATTGCATGATAAATATGTCGGAGTCACCTAGTGCAG,3220 fluorescence intensity (a.u.)
3,CCATAACGTGGAAATTTCGTTGATAGCTCGCTAGCTGCAACGGAGTCACCTAGTGCAG,5920 fluorescence intensity (a.u.)
4,AGGCAAAATTGACAAAGAGATAAGAAACCATCAAAATAATCGGAGTCACCTAGTGCAG,3500 fluorescence intensity (a.u.)
5,GGTAAACTGTCAGTTTAAATTTGTTATGTTTTCATTGTGTCGGAGTCACCTAGTGCAG,46000 fluorescence intensity (a.u.)
6,AACTTGAACGATAATTATGTTCGATTTGTAAAATTCTAATCGGAGTCACCTAGTGCAG,4700 fluorescence intensity (a.u.)
7,ATGACGTACAATCAAGGACGCGCAATACAGATAATTAAGCCGGAGTCACCTAGTGCAG,7000 fluorescence intensity (a.u.)
8,TGCGTGATGATATATTGACTGCTCCATCTCTCGTCTCGCGCGGAGTCACCTAGTGCAG,17900 fluorescence intensity (a.u.)
9,ATATTTATAATTAATTTAATAGCTAATTCATACTCCAATACGGAGTCACCTAGTGCAG,27300 fluorescence intensity (a.u.)
10,GCGTGATTGACGCGGAACCCGAGGTGGACGGACTATGGAACGGAGTCACCTAGTGCAG,38900 fluorescence intensity (a.u.)
11,TATATATTGATTAAAATTTATAAAACTATTGATCAAATTACGGAGTCACCTAGTGCAG,4060 fluorescence intensity (a.u.)
12,ATATTTAAACAGAAACCACTTAATTAAAACTGAGACGAAACGGAGTCACCTAGTGCAG,6060 fluorescence intensity (a.u.)
13,CTCTCGATTAGATATATTTACATGCCTCTTCCGAATACATCGGAGTCACCTAGTGCAG,4500 fluorescence intensity (a.u.)
14,TTGACTGATAGAAATAAGCACGATAAAATAGCCGTGGAGTCGGAGTCACCTAGTGCAG,26600 fluorescence intensity (a.u.)
15,AGGATAATTATTCCGTCGGCCGACCACCAAGAAACTACCACGGAGTCACCTAGTGCAG,15200 fluorescence intensity (a.u.)
16,ATACTCTACTCAATTAACGATAGACTAACTTGTTCTACGTCGGAGTCACCTAGTGCAG,16000 fluorescence intensity (a.u.)
17,TTAATTAAATATTAATTGTTTTGAACTCTTGGATGAATACCGGAGTCACCTAGTGCAG,32000 fluorescence intensity (a.u.)
18,GGGCTTAATTAATTGCTGGGATAATCACGATCGGATTCAGCGGAGTCACCTAGTGCAG,34600 fluorescence intensity (a.u.)
19,AATTTAACTTTAATTTCAAATTTTAAATTTTGGATACGGCCGGAGTCACCTAGTGCAG,13200 fluorescence intensity (a.u.)
20,CTTTGTAGACTGACAGTGATAGTATTGTACTGCTATACGTCGGAGTCACCTAGTGCAG,9250 fluorescence intensity (a.u.)
21,TATTTAATCAAACTAATTTGGTATCTTAGATGTTGCTAATCGGAGTCACCTAGTGCAG,19600 fluorescence intensity (a.u.)
22,CATATAGATTTAACATTGGTTTTATCACAAAACTATAACTCGGAGTCACCTAGTGCAG,3770 fluorescence intensity (a.u.)
23,CACAACCAACTGATTGAAGACGTCCACGTGCTTCCTAAGACGGAGTCACCTAGTGCAG,37600 fluorescence intensity (a.u.)
24,CACTGCCTTGATTAGTGGGGCAGCAGTACCTTGTTATGCCCGGAGTCACCTAGTGCAG,11600 fluorescence intensity (a.u.)
25,GAACTAATTTGCAGGGTAGCAGAAATAAGTTGTTGCTGCACGGAGTCACCTAGTGCAG,10900 fluorescence intensity (a.u.)
26,ATACATCAACCTAATTGCTTTATATTGGGATGGAGGGAGTCGGAGTCACCTAGTGCAG,5120 fluorescence intensity (a.u.)
27,ATTATCTTTCTAATCAATTAATTAAACGCAAAATCAGTAGCGGAGTCACCTAGTGCAG,25400 fluorescence intensity (a.u.)
